# About 64,000 (15%) of roughly 420,000 compounds were called active. This list was built around the results that the source calls inconclusive (neither active nor inactive); the mix of calls is not that of the screen. Calls come from the whole dose curve; as a rule, active = well fitted inhibition curve with a large enough effect; inconclusive = small, poorly fitted or top-dose-only effect; inactive = flat fitted curve, though single readings scatter. Potencies of inconclusive entries are left out as doubtful fits.
# Test: qHTS for Inhibitors of human tyrosyl-DNA phosphodiesterase 1 (TDP1): qHTS in cells in absence of CPT; note: nearly all actives have a fitted effect of over 55% in size
# Conditions: DT40 Tdp1-/- hTDP1 cells, no CPT, ATP luminescence, 48 h; activity change, negative = growth inhibition: at 46.2 µM (top of the series) unless noted
# Procedure, shortened: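 Compound effects on proliferation are scored in DT40 Tdp1-/-;hTDP1 cells in the absence of CPT. ATP levels (CellTiter-Glo luminescence) are recorded after a ≥48 hr, 37 °C incubation.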
# % is set by controls: 0 for no effect and ±100 for the full control effect; potency is the fitted concentration of half-maximal effect; tags give direction and shape of the fitted curve.
SMILES,Potency,"activity change, negative = growth inhibition"
COc1ccccc1Cc1nc2ccccc2nc1SCC(=O)NCc1ccccc1Cl,"inconclusive [inhibitor, partial curve]",
O=C(CCCn1c(=S)[nH]c2ccsc2c1=O)Nc1ccc(F)cc1,"inconclusive [inhibitor, single point]",
CCOc1ccc(OCCNC2CCCC2)cc1,,inactive: -3.33%
COc1ccc(OC)c(C(=O)N2CCOc3ccc(C(C)(O)CN(C)C)cc3C2)c1 (stereo unspecified),,inactive: -10.7%
CCCC1=Nc2cc(C(=O)N3CCC(C)CC3)ccc2Sc2ccc(C)cc21,,inactive: -20.7%
CC1(C)CC(CCC(=O)Nc2ccccc2Cl)C(=O)O1 (stereo unspecified),,inactive: -15.7%
CC1=C(C(=O)OC2CCCCCC2)C(c2cccc(Cl)c2)CC(=O)N1 (stereo unspecified),active: 18.4 µM,
O=C(Nc1cccc(Cl)c1)c1ccc(F)c(S(=O)(=O)N2CCN(c3ccccn3)CC2)c1,active: 18.4 µM,
Nc1nc(COc2ccccc2C=O)nc(Nc2ccccc2)n1,,inactive: -9.11%
Cc1ccc(OCC(=O)Nc2ccc3oc(=O)ccc3c2)c(C)c1,"inconclusive [inhibitor, single point]",
Cc1cccn2c(=O)c(/C=C(\C#N)C(=O)NCc3ccco3)c(N3CCCCCC3)nc12,"inconclusive [inhibitor, single point]",
Cc1ccc(C)c(NC(=O)CN(C)C(=O)Cc2coc3cc(C)c(C)cc23)c1,"inconclusive [inhibitor, single point]",
O=C(NC(=S)N1CCc2ccccc21)c1ccccc1Cl,"inconclusive [inhibitor, single point]",
O=C(N/C(=C\c1ccc(Cl)cc1)C(=O)N1CCOCC1)c1ccco1,"inconclusive [inhibitor, partial curve, poor fit]",
COc1ccc(/C(N)=N/OC(=O)Cc2ccccc2)cc1,,inactive: -2.57%
CCN(CC)CCNC(=O)C1(O)c2cc(Br)ccc2NC(=O)N1c1c(F)cccc1F (stereo unspecified),,inactive: 20.2%
C=CCN(C(=O)c1csnn1)C(C(=O)NC1CCCC1)c1ccc(F)cc1 (stereo unspecified),,inactive: -18.4%
c1ccc2nc(-c3ccncc3)ccc2c1,,inactive: -24.4%
O=c1c2ccccc2nc(COc2ccccc2)n1/N=C/c1ccco1,active: 14.6 µM,
Cc1cc(C)n(-c2nc(NCCCN(C)C)c3c4c(sc3n2)COC(C)(C)C4)n1,"inconclusive [inhibitor, single point]",
O=C(COn1nnc2ccc(Cl)cc21)NCc1ccccc1,"inconclusive [inhibitor, single point]",
O=C(CN1CCc2ccccc2C1)Nc1ccc(OC(F)(F)F)cc1,,inactive: -22%
O=c1c2ccccc2c(C=NCCc2ccccc2)c(O)n1Cc1ccccc1,"inconclusive [inhibitor, single point]",
CSc1nc(-c2ccc(Cl)cc2Cl)[nH]c(=O)c1C#N,"inconclusive [inhibitor, partial curve, poor fit]",
Cc1ccc(NC(=O)NNS(=O)(=O)c2ccc(Br)cc2)cc1,,inactive: -15.3%
CCCOc1ccc(C2C(C(=O)OC)=CN(CCOC)C=C2C(=O)OC)cc1,"inconclusive [inhibitor, partial curve]",

SMILES,Potency,"activity change, negative = growth inhibition"
CSc1ccccc1C(=O)Nc1c(C)cccc1C,,inactive: -19.1%
O=C(CCl)Nc1ccc2c(c1)OCO2,"inconclusive [inhibitor, single point]",
Cc1ccc(Cn2c(=N)c(C(=O)NC3CCCC3)cc3c(=O)n4ccccc4nc32)cc1,active: 6.51 µM,
Nn1c(SCC(=O)NC2CCCCC2)nnc1-c1ccccc1F,,inactive: -5.83%
CC(C)(C)C1CCC2(CC1)C(C#N)=C(SCC(=O)Nc1ccccc1)NC(=O)C2C#N (stereo unspecified),"inconclusive [inhibitor, single point]",
CCCNC(=O)[C@H](C)NC(=O)c1ccc(Br)cc1,,inactive: 0.824%
O=[N+]([O-])c1cc(S(=O)(=O)NCCCN2CCOCC2)ccc1Cl,,inactive: -17.9%
COc1cc(OC)cc(C(=O)N2CCC(N3CCN(c4ccccc4OC)CC3)CC2)c1,"inconclusive [inhibitor, single point]",
Cc1ccc(C)c(NS(=O)(=O)c2cc(C(=O)NCCSC3CCCCC3)ccc2C)c1,active: 23.1 µM,
O=C(CCc1ccc(O)cc1)NN=Cc1ccc2c(c1)OCO2,"inconclusive [inhibitor, single point]",
CC(=O)Nc1cc(-c2ccc(C(=O)N3CCOCC3)cc2)cn2c(-c3ccccc3)cnc12,"inconclusive [inhibitor, single point]",
O=C(CNC(=S)NC(=O)c1ccc(F)cc1)c1ccccc1,,inactive: -22.9%
O=C(COC(=O)c1ccccc1-n1cnnn1)c1ccc(Br)cc1,,inactive: 12.7%
Cc1nc(-c2ccc(NC(=O)c3ccccc3)cc2)cs1,"inconclusive [inhibitor, single point]",
CCCCn1c(N)c(N(CC(C)C)C(=O)c2ccco2)c(=O)[nH]c1=O,,inactive: 17.1%
CN(C)CCN(C(=O)c1ccc2c(c1)OCCO2)c1nc2ccc(Cl)cc2s1,"inconclusive [inhibitor, single point]",
CC(=O)NC(Cc1cccc(C)c1)C(=O)NC1CCN(C(=O)NCc2ccccc2)CC1 (stereo unspecified),,inactive: -18.2%
Cn1cc([N+](=O)[O-])c(C(=O)NNC(=O)c2ccc([N+](=O)[O-])cc2)n1,,inactive: -17.4%
O=C1NC(=Nc2ccccc2)S/C1=C/c1cccs1,"inconclusive [inhibitor, single point]",
C#CC1(NC(=O)NS(=O)(=O)c2ccc(C)cc2)CCCCC1,,inactive: 6.52%
CCC(=O)N(Cc1cc(=O)[nH]c2ccccc12)c1ccc(C)cc1C,,inactive: 8.69%
CN(C)c1nc(SCCOC(=O)Nc2ccccc2)nc(N(C)C)n1,"inconclusive [inhibitor, single point]",
N#C/C(C(=O)NCc1ccco1)=C1/SC=C(c2ccccc2)N1c1ccccc1,"inconclusive [inhibitor, partial curve]",
COc1ccc(CCn2c(-n3nc(C)cc3C)nc3c2c(=O)[nH]c(=O)n3C)cc1,active: 1.64 µM,
C=CCc1cccc(CNc2nc3ccccc3n2CCN2CCOCC2)c1O,"inconclusive [inhibitor, single point]",
COc1cccc(C(O)c2nc(-c3cccc(C(F)(F)F)c3)cs2)c1 (stereo unspecified),active: 0.58 µM,

SMILES,Potency,"activity change, negative = growth inhibition"
Cc1nnc2n(Cc3ccccc3)c(=O)c3c4c(sc3n12)COC(C(C)C)C4 (stereo unspecified),"inconclusive [inhibitor, single point]",
Cn1c(=O)c2[nH]c(SCc3cccnc3)nc2n(C)c1=S,,inactive: -28.5%
CC(C)OC(=O)/C=C1\C[C@@H](c2ccccc2C(F)(F)F)O[C@@H](c2ccccc2C(F)(F)F)O1,active: 20.6 µM,
COc1cccc(C(=O)O/N=C(\N)c2ccncc2)c1OC,"inconclusive [inhibitor, partial curve]",
CC1CC(C)CN(CCCNC(=O)C2CCN(S(=O)(=O)N3CCCCC3)CC2)C1 (stereo unspecified),"inconclusive [inhibitor, partial curve, poor fit]",
CC(=O)Nc1ccc(NC(=O)CCS(=O)(=O)c2ccc3c(c2)CC(=O)N3C)cc1,,inactive: -9.22%
COc1ccc(-c2noc(-c3ccc(NCC4CCCO4)c([N+](=O)[O-])c3)n2)cc1OC (stereo unspecified),,inactive: -26.8%
CC(Sc1nnc(C2CC2)n1C1CC1)C(=O)NC1(C#N)CCCCC1 (stereo unspecified),,inactive: -1.21%
COc1ccccc1CNC(=O)c1oc2ccc3c(c2c1C)C(=O)CC(C)(C)O3,active: 16.4 µM,
Cc1ccc(NC(=O)CSc2ncc3ccccn23)cc1C,"inconclusive [inhibitor, single point]",
O=C(c1ccc(N2C(=O)C3CCCCC3C2=O)cc1)N1CCCCC1 (stereo unspecified),,inactive: -6.42%
O=C(c1ccc2nsnc2c1)N1CCN(c2ccc([N+](=O)[O-])cc2)CC1,active: 20.6 µM,
Cc1ccccc1N(C(=O)c1cccs1)c1nc2ccccc2s1,active: 18.4 µM,
O=S(=O)(c1ccc2c(c1)OCCO2)N1CCC(n2cnc3cc(F)ccc32)CC1,"inconclusive [inhibitor, partial curve]",
CCOC(=O)C1(Cc2ccc(Cl)cc2)CCN(Cc2cn(CC)nc2C)CC1,"inconclusive [inhibitor, partial curve]",
CCOC(=O)CC(=O)CSc1nc2ccccc2c(=O)n1CCc1ccc(S(N)(=O)=O)cc1,"inconclusive [inhibitor, partial curve]",
Cc1ccsc1/C=N/Nc1ncc(Cl)cc1Cl,"inconclusive [inhibitor, single point]",
O=C(CSc1nc(-c2ccc(F)cc2)cc(C(F)(F)F)n1)NCc1ccco1,"inconclusive [inhibitor, single point]",
Cc1cc(C)c(C(=O)COC(=O)c2cccc(S(=O)(=O)NCc3ccccc3)c2)cc1C,active: 16.4 µM,
CC1(C)OC(=O)C(=NNc2ccc(Br)cc2)C(=O)O1,"inconclusive [inhibitor, single point]",
O=C(CN1C(=O)NC2(CCc3ccccc32)C1=O)c1ccc(Cl)cc1 (stereo unspecified),"inconclusive [inhibitor, partial curve]",
CCOC(=O)C1CCC(CN(Cc2cccc(Br)c2)S(=O)(=O)c2ccc(Cl)cc2)CC1 (stereo unspecified),active: 20.6 µM,
O=C(Nc1ccc(C(F)(F)F)cc1)N1CCN(c2ccnc3cc(Cl)ccc23)CC1,active: 16.4 µM,
COc1ccc(NC(=O)Cn2cc(S(=O)(=O)Cc3ccc(F)cc3)c3ccccc32)cc1OC,"inconclusive [inhibitor, partial curve]",

# Reference: PubChem BioAssay AID686978 (National Center for Advancing Translational Sciences (NCATS), 2013)
